Data published in the RNAGym collection of RNA variant scans (doi:10.7554/elife.90254).
Read counts are not given, so values of variants with three or more changes are uncertain.

B1: LINE1-full (parent)
chain: UACGUAGGUGGUUUUCCCCUGAUAGUGCUAAGGGGGCCUGGAAGUUUGGACUGGGCAGAGCUCAACACAGCGUGGCAAAGUGGCUGUGGCUAGACUGCCUCUCUGGAUUCCUCGUCACUCAGCAGGGCAUCUCUGAGAGAAAUGCC

Variants of: B1
Assay: self-cleavage, relative activity (ratio to wild type); higher = more cleavage; in vitro, sequencing; the parent is a self-cleaving ribozyme

| Variant | self-cleavage |
| --- | --- |
| U13C A57U A65G A140G | 0.09 |
| C16A U85A G122U | 0.06 |
| U1C U20C U109C | 0.63 |
| G11U A43G C61U | 0.19 |
| U39C A94G C116U | 0.14 |
| A24G A43G G105U | 1.8 |
| U20C A31U U47A A77U U119C A138G A141G | 1.53 |
| U14C A22G U134C | 1.2 |
| U14C U132C A140G | 1.42 |
| U39C G53C A142G | 1.53 |
| A64U U73A A79G | 0.49 |
| U85A U96C U134A G139U | 0.12 |
| U29C A78U A94G | 1.02 |
| A43G A79G G89A A94G U112C | 0 |
| U14C U23C U39C A57G | 0 |
| U87C A92G A138G | 0.12 |
| U45G A59U U119A | 0.72 |
| U12A G55A A129G | 0.36 |
| U20C A57G U102C G127U | 1.04 |
| U20A A50G A64U A129G A138U | 0.74 |
| A22G C71G U96C A117U | 0.05 |
| U13A U20G A22G A67G C68A A121U | 0.18 |
| A22G U45C U46C | 1.06 |
| U26C U52A A142G U143A | 2.38 |

| Variant | self-cleavage |
| --- | --- |
| A2G G4A U132C | 0.91 |
| A69G U112C A138G | 1.53 |
| U9A U62C U73A A92G C101U A117U | 0.03 |
| A6U U15C C19U A77G A138G | 1.68 |
| U9C U14A C90U | 0.09 |
| G11A A30U U62C A69G C98U | 0.13 |
| U29A A57G A65G C66A A77G A138C | 0.2 |
| A2G G83A U119A | 1.47 |
| A78G U85A C90A | 0.11 |
| A31U U47C G48U | 1.25 |
| U12C U45A A94U A117U | 0.39 |
| G49A A57U A67G A136G | 0.11 |
| A50U U73A A78G U132C | 0.19 |
| U47C A77G U109C | 1.72 |
| A59G A92C A124U | 0 |
| U39A A50G U119C A138G | 0.61 |
| U115C U132C U143A | 2.3 |
| A30U G44A A124U | 0.53 |
| U85G U109C U130C A140G | 0 |
| U109A U132C U134A | 0.42 |
| U13C A64G U115C | 1.08 |
| A43G U45C A65G A138G U143C | 0 |
| A6G A24U A31G U91C A124G | 0 |
| U87C G106C A124U | 0.22 |

| Variant | self-cleavage |
| --- | --- |
| G86A A92U A107U | 0.05 |
| U13C U87C A136U | 0.53 |
| U39A U62C U81A U130C | 0.16 |
| A22G G127A A140G | 1.84 |
| U13C A65G U109C C145G | 0 |
| A77U U115C A121C | 1.62 |
| A42G U46C U96C | 0.79 |
| U23C U45C A57U G93A U100C U112G A121U | 0 |
| U15A U81G A121U C145U | 0.84 |
| A78G A94G C99U | 0.17 |
| U20A A22G U62G | 0.14 |
| U26A U87A A117G A138G | 0.18 |
| A50U U112C A141G | 0.73 |
| A22G A50U C116A | 0.38 |
| C51U U62C G86A | 0.05 |
| G8U U47C U132C | 0.98 |
| U26C U39C A64G | 0.45 |
| A42G U91A A107U A117G | 0.46 |
| U23A U46C C76U | 0.57 |
| U5C A79G A117U | 1.26 |
| U1G U46C A129G A138U | 0.75 |
| A42G A124G A136G | 0.97 |
| A50C A67U G114A A121G | 0.05 |
| A43U U45C A65G A117U A138U | 0.74 |

| Variant | self-cleavage |
| --- | --- |
| U26C U46C U134C A138G | 1.84 |
| U62C A69U U132C A138G | 0 |
| A24G A30U A129G A141U | 0.92 |
| A42G U73A U130C | 1.81 |
| U23A U45C U102C | 0.57 |
| U39A U45C A78G A141G | 1.29 |
| U46C A57G A69G | 0 |
| U62C A67G U109A U115C | 0.31 |
| A24G A69G U87C A138G | 0 |
| U47C U102C A138G | 2 |
| U9C A22U G49A A65G U87A U109C U134A A138G U143A | 0.13 |
| U13C U20A A31U | 1.12 |
| U23C C38U U73A | 0.85 |
| A65C U81A C145U | 0.01 |
| U9C A42G U73C U96A | 0.77 |
| U9A A22G U62C A138G | 0 |
| U23C U29C A64U A138U | 0.67 |
| A57G C63A A69U | 0.01 |
| A43G C113U U143A | 0.84 |
| U9C G49A A92U | 0.5 |
| U14C A22U U39A U85A U119C | 0.12 |
| A42G U119C A136U | 1.16 |
| U23C G36A A59U | 0.52 |
| U15C U62C A77G | 0.11 |

| Variant | self-cleavage |
| --- | --- |
| U26G G89A U96C A124U | 0.05 |
| C16U A50G U85A | 0.07 |
| A24G A43U A136G | 0.9 |
| A77G U108A U112A | 1.87 |
| G4A U102C U112C | 1.02 |
| A43G U115A U130C | 0.77 |
| A43U U62C G97A | 0.02 |
| U45C A59G U73C | 0 |
| G25U C71U U115A | 0.9 |
| U26C A121G A141G U143C | 0 |
| U14C U47C A94G A117U U143C | 0.18 |
| U12C U23C U85C | 0.8 |
| U14C C38U U47A A69G | 0.49 |
| C16A A30G U96C A121U | 0.23 |
| A65U U108C A138G A142C | 0.05 |
| U12C U85C U132A | 0.3 |
| A22G U85A C146U | 0.07 |
| U1A C18A A94G U134G | 0.39 |
| G7U A42G A124G | 1.21 |
| U115C G122A A129G A140U | 1.65 |
| G36U A79G U132A | 0.71 |
| U1A G35U A57U | 0.48 |
| U13C A24G A69U | 0 |
| U62A A64G U104C | 0.04 |

| Variant | self-cleavage |
| --- | --- |
| U15C A22G A43G | 1.15 |
| U9C U29A A42G U45C | 1.07 |
| C103U A117G G122A | 1.62 |
| U14C G83A A142G | 0.9 |
| U12C A43U U62C A79U U87C | 0.1 |
| U29C U39C U134C | 0.95 |
| U5C A30U A107G U108A | 0.68 |
| U1A A78U U104C A124U | 2.24 |
| G53A A94G A142G | 0.09 |
| U13C A22G A42G A79G G93U | 0.34 |
| A2G U46C G75A | 0.56 |
| G10A U39A C133U | 1.43 |
| U39A U87C U130C | 0.32 |
| U39C U109A A117U | 1.49 |
| U9C U73C G144A | 0.89 |
| C51U A57G A129C G144A | 1.57 |
| A57U A79U U112C A140G A142G | 0.03 |
| U12C A57U U87C A121G A138G | 0 |
| U14C G32A U130C G139A | 1.37 |
| C16U C110A A121U C128A | 0.91 |
| A43G U85C U96C | 0 |
| G34U U45C A124G | 1.1 |
| A31G U47A A64U | 0.47 |
| A42G A67G C113A | 0.27 |

| Variant | self-cleavage |
| --- | --- |
| C3U U39C U91C U100C | 0 |
| U13C G60A A65G U119C | 0.12 |
| U73C U104C U132C | 1.84 |
| A43G U62C A129U | 0.06 |
| U85C U115C A138G | 0 |
| U26C A67C G75U | 0.02 |
| U1A G48A U96C U130A | 0.2 |
| U5C A77U U108C | 1.12 |
| G32A A77U U132C | 1.06 |
| C17G U102C U119C | 1.08 |
| A57G U104A U134C | 0.4 |
| A43G U96A A129G | 0.06 |
| A121G A124U U132C U143C | 1.78 |
| U9C G21A A142G | 1.35 |
| U29A A50G A107G | 0 |
| G41U A67G G75A U108C U132C | 0.37 |
| G4A G32U G34A A43U G82A U115A C128G A140G | 0.44 |
| U45C U52A G82U U96A U130C U143C | 0 |
| U52A U108C U115C A138G | 0 |
| A24G A59U U104A | 0.45 |
| U26A U62C A141G | 0.14 |
| U47A A59G A64G | 0.15 |
| A6U U52A G122A | 1.11 |
